Among all 340,000 compounds or so, about 12,000 (3.5%) were called active. Inconclusive results, whose numbers are uncertain, are shown with a selection of clear calls. The call rests on the fitted dose curve; in most records, active means well fitted inhibition curve with a large enough effect; inconclusive means small, poorly fitted or top-dose-only effect, or another doubt; inactive means no such curve, though single readings can be large or run the other way. No potency is given beside an inconclusive call; the fits are too rough.
Experiment: qHTS Assay for Inhibitors of Hepatitis C Virus (HCV)
Conditions: Huh7.5.1 HCVcc-Cre (HCVcc is cell-culture hepatitis C virus) infection, luciferase reporter, 44 h; activity change, negative = inhibition: at 41.8 µM (top of the series)
Procedure, shortened: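 Whole-lifecycle infectious HCVcc-Cre system; cells 1,000/well, compound then virus (~0.5 moi) added 4 h after plating, 44 h culture. Luciferase read 15 sec following 15 min substrate incubation, room temp.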
On the % scale 0 is the no-effect control and ±100 the full control effect; potency means the concentration at half of the fitted maximal effect; tags describe the fitted curve by direction and shape.

SMILES | Potency | activity change, negative = inhibition
COc1cc(Br)cc(CNc2ccc(F)c([N+](=O)[O-])c2)c1O | inconclusive [inhibitor, single point] | 
Cn1c(=O)n(C)c2cc(NC(=O)CCc3ccccc3)c(Br)cc21 |  | inactive: -19.3%
COc1ccc(C(C)=O)cc1CSCc1cc(C(C)=O)ccc1OC |  | inactive: -24.6%
COc1ccc(C=C2C(=O)OC(C)(C)OC2=O)cc1OC |  | inactive: 9.88%
CC(=O)c1cccc(OCC(O)CN2CC=C(c3ccccc3)CC2)c1 (stereo unspecified) | inconclusive [inhibitor, partial curve, poor fit] | 
CCC1=NN(C(=O)COc2ccccc2)C(O)(c2ccncc2)C1 (stereo unspecified) |  | inactive: 18.6%
CCCC(NCC(=O)Nc1cc(S(=O)(=O)N2CCOCC2)ccc1OC)c1ccccc1 (stereo unspecified) | inconclusive [inhibitor, partial curve] | 
O=C(N=Nc1c(O)[nH]c2ccc(Br)cc12)c1cc(-c2cccc3ccccc23)n[nH]1 | inconclusive [inhibitor, partial curve] | 
COC(=O)c1sc(S(=O)(=O)N2CCCCC2C)c(C(=O)OC)c1C (stereo unspecified) |  | inactive: -20.1%
CCOc1ccccc1NC(=O)C1CCN(C(=O)NCc2ccccc2)CC1 | inconclusive [inhibitor, full curve] | 
Cc1ccc(CNC(=O)CS(=O)Cc2nc(-c3ccccc3C)oc2C)cc1 (stereo unspecified) |  | inactive: -8.86%
CCOC(=O)C1C(C(=O)OC)=C(C(=O)OC)c2ccccc2N1S(=O)(=O)C(F)(F)F (stereo unspecified) | inconclusive [inhibitor, partial curve] | 
O=S(=O)(c1cccc(NC(=S)N2CCN(c3ccc(F)cc3)CC2)c1)C(F)F | inconclusive [inhibitor, partial curve, poor fit] | 
Cn1c(C(=O)O)cc2cc(Oc3ccccc3)ccc21 |  | inactive: 8.04%
COC(=O)c1c(NC(=O)c2ccco2)sc(C(=O)Nc2ccc(F)cc2)c1C | inconclusive [inhibitor, full curve] | 
COc1ccccc1NS(=O)(=O)c1cc(C(=O)N2CCCCCC2)ccc1C | inconclusive [inhibitor, single point] | 
Cc1cc(NC(=O)CSc2nnnn2-c2ccc(F)cc2)no1 |  | inactive: 16.5%
Cc1ccc(O)c(-c2cc(C(F)(F)C(F)F)nc(-c3ccccc3)n2)c1 | inconclusive [inhibitor, partial curve] | 
COc1ccc(NC(=O)CN2CCC(NC(=O)C3CCCCC3)CC2)c([N+](=O)[O-])c1 |  | inactive: 4.06%
COc1cc(-c2nc(-c3cccc(C(F)(F)F)c3)no2)cc(OC)c1OC | inconclusive [inhibitor, partial curve] | 
COc1ccccc1-n1cnc2c(c1=O)c1nc3ccccc3nc1n2-c1ccc(C)cc1 | inconclusive [inhibitor, single point] | 
Cc1ccc(S(=O)(=O)C(c2ccccc2)c2c(C)noc2C)cc1 (stereo unspecified) |  | inactive: -6.15%
COC(=O)[C@]1(C)CCC[C@@]2(C)C3CC[C@]4(OC(C)=O)C[C@@]3(CCC21)CC4=O (stereo partly specified) | inconclusive [inhibitor, full curve] | 

SMILES | Potency | activity change, negative = inhibition
Cc1ccc(S(=O)(=O)N2CCOCC2)cc1C(=O)N1CCC(Cc2ccccc2)CC1 |  | inactive: -1.29%
CNCC[C@@H](Oc1ccccc1C)c1ccccc1 |  | inactive: 9.8%
Cc1ccc(C(NC(=O)c2cccc(S(=O)(=O)N3CCN(C)CC3)c2)c2ccccc2)cc1 (stereo unspecified) | inconclusive [inhibitor, single point] | 
Cc1nn(C)cc1C(C(=O)NC1CCCCC1)N(C(=O)c1cnccn1)c1ccc(Oc2ccccc2)cc1 (stereo unspecified) |  | inactive: -1.49%
CCOC(=O)N1CCN(C(=O)c2ccc3c(c2)N=C(C)c2cc(Cl)ccc2S3)CC1 | inconclusive [inhibitor, single point] | 
c1ccc(CN2CCC3(CCCc4ccccc43)CC2)cc1 | inconclusive [inhibitor, partial curve] | 
COc1cccc(CNC(=O)c2cc(=O)[nH]c3ccc(S(=O)(=O)N4CCOCC4)cc23)c1 | inconclusive [inhibitor, full curve, poor fit] | 
CCc1c(O)nc(SC2CC(=O)N(c3ccc(F)c(Cl)c3)C2=O)[nH]c1=O (stereo unspecified) |  | inactive: 11.6%
CC(C)CC(N=C1NC(C)(C)Cc2ccccc21)C(=O)O (stereo unspecified) |  | inactive: 11%
CCOC(=O)C1(c2ccccc2)Oc2ccccc2C(c2ccc(OC)cc2)=C1C(=O)OC (stereo unspecified) | inconclusive [inhibitor, full curve, poor fit] | 
CCN(CC)CCCNC(=O)c1ccc2c(Cl)c3c(nc2c1)CCCC3 | inconclusive [inhibitor, single point] | 
C=C(C)CSc1nnc(-c2cccc(S(=O)(=O)N(C)C)c2)n1-c1cc(OC)ccc1OC | inactive | 
CCCc1ccc(Oc2cn[nH]c2-c2ccc(O)cc2O)cc1 | inconclusive [inhibitor, single point] | 
ClCCN(CCCl)c1ccc(-n2cnc3c(Cl)ncnc32)cc1 | active: 12.6 µM | 
CC1CN(S(=O)(=O)c2ccc(C(=O)Nc3sccc3C(N)=O)cc2)CC(C)O1 (stereo unspecified) | inconclusive [inhibitor, single point] | 
O=C(NC(=S)Nc1ccccc1N1CCN(C(=O)c2ccccc2)CC1)c1cccs1 |  | inactive: -5.5%
COc1cccc(-c2cc(C(F)(F)F)nc(NCc3ccco3)n2)c1 | inconclusive [inhibitor, single point] | 
O=C(CN1CCCCC1)Nc1nnc(-c2ccc([N+](=O)[O-])cc2)s1 |  | inactive: -23.8%
Cc1cccc(C(=O)OCC(=O)c2c(N)n(CC(C)C)c(=O)n(C)c2=O)c1[N+](=O)[O-] | active: 14.1 µM | 
Cc1cc(N/N=C/c2ccc(O)cc2O)c2ccccc2n1 | inconclusive [inhibitor, single point] | 
CC(Sc1ncnc2sc(-c3ccccc3)cc12)C(=O)N1CCNC1=O (stereo unspecified) | inconclusive [inhibitor, single point] | 
Cc1cc(C)c(CN2CCN(C(=O)Cn3cnc4c(OCc5ccccc5)ncnc43)CC2)c(C)c1 | active: 0.562 µM | 
COc1ccc2cc(C#N)c(NC(C)C)nc2c1 | inconclusive [inhibitor, partial curve] | 
